Inconclusive results, whose numbers are uncertain, are shown with a selection of clear calls. No potency is given beside an inconclusive call; the fits are too rough. Calls of active or inactive are those of the source. Calls come from the whole dose curve; as a rule, active = well fitted inhibition curve with a large enough effect; inconclusive = small, poorly fitted or top-dose-only effect; inactive = no such curve, though single readings can be large or run the other way.
Target: Rap guanine nucleotide exchange factor 3 (Homo sapiens) (UniProt O95398)
Sequence of UniProt O95398 (O95398 whole entry, looked up): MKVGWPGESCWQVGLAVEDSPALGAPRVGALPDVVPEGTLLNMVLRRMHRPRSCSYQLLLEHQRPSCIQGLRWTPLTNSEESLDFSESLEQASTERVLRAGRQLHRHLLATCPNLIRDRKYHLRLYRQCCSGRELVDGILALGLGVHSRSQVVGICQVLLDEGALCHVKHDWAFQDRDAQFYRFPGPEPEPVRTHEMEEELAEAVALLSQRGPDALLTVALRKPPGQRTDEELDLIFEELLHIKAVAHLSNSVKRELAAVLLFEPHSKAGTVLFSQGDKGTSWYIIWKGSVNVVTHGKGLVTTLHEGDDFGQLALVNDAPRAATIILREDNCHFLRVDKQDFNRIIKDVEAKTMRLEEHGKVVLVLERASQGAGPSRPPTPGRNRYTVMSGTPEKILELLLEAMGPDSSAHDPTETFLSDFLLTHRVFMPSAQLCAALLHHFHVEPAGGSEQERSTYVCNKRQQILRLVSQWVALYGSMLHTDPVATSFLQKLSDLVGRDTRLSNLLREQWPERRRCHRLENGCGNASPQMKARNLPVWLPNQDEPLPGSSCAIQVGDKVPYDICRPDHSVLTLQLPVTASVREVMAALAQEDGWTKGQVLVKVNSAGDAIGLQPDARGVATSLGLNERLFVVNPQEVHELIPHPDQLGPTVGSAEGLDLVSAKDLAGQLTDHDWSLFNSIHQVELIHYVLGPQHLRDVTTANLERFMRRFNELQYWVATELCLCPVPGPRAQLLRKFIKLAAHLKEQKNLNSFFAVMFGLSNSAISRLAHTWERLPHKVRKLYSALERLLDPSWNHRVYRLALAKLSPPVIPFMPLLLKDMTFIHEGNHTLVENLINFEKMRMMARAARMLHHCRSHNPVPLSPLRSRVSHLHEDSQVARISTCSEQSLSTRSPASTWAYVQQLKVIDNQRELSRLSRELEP
Test: Confirmatory qHTS for antagonist of cAMP-regulated guanine nucleotide exchange factor 3 (EPAC1) (AID 1645880); note: nearly all actives have a fitted effect of over 55% in size
Conditions: EPAC1 Rap1B-BODIPY-GDP exchange, fluorescence; series mostly up to 115 µM
Method in brief: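 Nucleotide exchange uses 100 nM EPAC1, 250 nM RAP1B-BODIPY-GDP and 50 uM GDP, with compounds in a concentration-titration series. After 5 min at room temperature, fluorescence (480 nm ex/540 nm em) is read every 5 min for 30 min. Data are normalized to control ATA and DMSO.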
Potency is the fitted concentration of half-maximal effect; tags give direction and shape of the fitted curve.

| Structure (SMILES) | Potency |
| --- | --- |
| Cc1nc2c(C(=O)NCc3ccc(F)cc3)c[nH]n2c(=O)c1Cl | inconclusive [inhibitor, partial curve] |
| O=C(COC(=O)c1ccc2c(c1)C(=O)N(Cc1ccncc1)C2=O)Nc1ccccc1[N+](=O)[O-] | inconclusive [inhibitor, partial curve] |
| Cc1cc(-c2csc(N)n2)c(C)n1CCC(C)C | inactive |
| CC(C)(C)c1ccc(C(=O)N/C(=C\c2cccc([N+](=O)[O-])c2)C(=O)Nc2cccc(C(=O)O)c2)cc1 | inconclusive [inhibitor, partial curve] |
| COCOCCn1cc(CN2CCS(=O)(=O)N(Cc3ccc(-c4ccc(OC)cc4)cc3)C(CC(C)C)C2=O)nn1 (stereo not drawn) | inconclusive [inhibitor, partial curve, poor fit] |
| CC(=O)NC(c1ccco1)c1cc(Cl)c2cccnc2c1O (stereo not drawn) | inactive |
| c1cncc(-c2nc(NCCCN3CCOCC3)c3c4c(sc3n2)CCC4)c1 | inactive |
| COc1ccc(N2C(=O)c3ccccc3C2=O)cc1 | inactive |
| O=C(CSc1nc2ccsc2c(=O)n1CC1CCC(C(=O)O)CC1)c1ccc(Cl)cc1 (stereo not drawn) | active: 47.8 µM |
| Cc1cc(NS(=O)(=O)c2ccc(Nc3nc(-c4ccc(O)cc4)cs3)cc2)no1 | inconclusive [inhibitor, partial curve] |
| Cc1ccc(-c2nc3ccc(C)cn3c2Cc2ccccc2C(F)(F)F)cc1 | inconclusive [inhibitor, partial curve, poor fit] |
| COc1cc(O)c(C=NN2C(=O)CSC2=S)c(OC)c1 | inconclusive [inhibitor, full curve] |
| COC(=O)c1ccc(COc2ccc(/C=C/C(=O)c3ccc(OC)c(CSCC(=O)O)c3)cc2OC)cc1 | active: 37.9 µM |
| C/C(=N\NS(=O)(=O)c1ccc(C(C)(C)C)cc1)c1ccccc1 | inconclusive [inhibitor, partial curve] |
| Cc1cc(N=Nc2ccccc2C(=O)O)c(C)c(C)c1O | active: 39.8 µM |
| N#CC1=C(N)Oc2cc(N)ccc2C1c1ccc(Cl)cc1 (stereo not drawn) | inconclusive [inhibitor, partial curve, poor fit] |
| COc1cc(-c2cc(OC)c3c(C)oc(C)c3c(=O)c2)ccc1OC(=O)c1ccc(C)cc1 | inconclusive [inhibitor, single point] |
| CC1=NCCN1S(=O)(=O)c1c(C(C)C)cc(C(C)C)cc1C(C)C | inconclusive [inhibitor, partial curve] |
